# Experimental data as given in PubChem BioAssay AID488969 (Vanderbilt High Throughput Screening Facility, 2010).
# In all, about 110,000 compounds were measured (“z-score”: median about -0.1, highest 2% from about 2 on). Some of the results follow.
# Biological target: Metabotropic glutamate receptor 8 (Rattus norvegicus) (UniProt P70579)
# Experiment: rat mGluR8 modulators via GIRK flux, primary screen, cell-based, thallium flux, HTS (AID 488969)
# Settings: HEK293 rat mGluR8, GIRK (G protein-gated inwardly rectifying potassium channel) thallium flux, FluoZin2; at 10 µM; stronger effect = higher value; submaximal glutamate (EC20) added with thallium
# Sequence of UniProt P70579 (P70579 whole entry, looked up): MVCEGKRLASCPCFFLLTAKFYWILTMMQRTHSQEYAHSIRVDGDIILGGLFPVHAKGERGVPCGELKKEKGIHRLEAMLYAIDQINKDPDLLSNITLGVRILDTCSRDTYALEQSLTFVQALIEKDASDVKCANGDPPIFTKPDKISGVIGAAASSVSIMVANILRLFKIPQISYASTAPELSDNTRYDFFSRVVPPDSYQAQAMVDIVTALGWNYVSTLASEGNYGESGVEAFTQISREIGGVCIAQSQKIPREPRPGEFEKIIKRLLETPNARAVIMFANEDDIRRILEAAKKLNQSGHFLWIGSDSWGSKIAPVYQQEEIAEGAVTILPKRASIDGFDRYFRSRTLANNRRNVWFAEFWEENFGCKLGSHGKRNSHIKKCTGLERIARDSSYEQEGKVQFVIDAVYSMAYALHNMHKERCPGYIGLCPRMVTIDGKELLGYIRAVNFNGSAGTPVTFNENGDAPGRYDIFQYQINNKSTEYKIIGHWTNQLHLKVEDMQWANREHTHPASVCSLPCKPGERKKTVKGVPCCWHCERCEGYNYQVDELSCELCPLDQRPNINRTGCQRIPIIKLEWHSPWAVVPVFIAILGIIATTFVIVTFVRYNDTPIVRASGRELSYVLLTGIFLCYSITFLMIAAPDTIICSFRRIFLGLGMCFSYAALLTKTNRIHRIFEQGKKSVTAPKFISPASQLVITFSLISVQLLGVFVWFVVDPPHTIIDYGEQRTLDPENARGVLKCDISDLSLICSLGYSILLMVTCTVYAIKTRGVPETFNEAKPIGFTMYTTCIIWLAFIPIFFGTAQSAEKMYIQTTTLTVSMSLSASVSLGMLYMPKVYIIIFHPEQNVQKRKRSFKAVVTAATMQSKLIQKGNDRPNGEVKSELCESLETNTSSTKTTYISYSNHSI
row,SMILES,z-score
1,COc1ccc(-n2nnnc2-c2cnc3cc4c(cc3c2C)OCO4)cc1,-0.252
2,CC1CCCCN1Cc1ccc(N(C)C)cc1 (centres undefined),-0.0979
3,CS(=O)(=O)N(CC(=O)Nc1ccccc1C(=O)N1CCOCC1)c1ccccc1,-0.176
4,CC(NC(=O)c1ccc(Cl)cc1)C(=O)NC1=NCCS1 (centres undefined),-0.0564
5,O=c1c2ccccc2sn1-c1cc(S(=O)(=O)N2CCOCC2)ccc1N1CCCC1,-0.388
6,Clc1ccc(N2COC3c4cccc5cccc(c45)C32)cc1 (centres undefined),-0.682
7,CCOC(=O)CC(=O)CSc1nc2c(cc1C#N)CCC2,2.18
8,CCOC(=O)c1cnn(-c2ccccc2)c1NC(=O)CCl,0.0652
9,O=C(CN1C(=O)/C(=C\c2ccc(C(F)(F)F)cc2)Sc2ccccc21)NCc1ccco1,0.00192
10,COc1cccc(C2CC(c3c(F)cccc3Cl)n3nc(N)nc3N2)c1 (centres undefined),0.971
11,O=C(/C=C/Nc1ccc([N+](=O)[O-])cc1Br)c1cccc2ccccc12,0.124
12,CC(C)CCNC(=O)C(c1ccncc1)N(Cc1cccs1)C(=O)Cn1nnc(-c2ccc(F)cc2)n1 (centres undefined),-0.198
13,O=C(N/N=C\c1ccc(-c2ccc([N+](=O)[O-])cc2)o1)c1ccc2c(c1)OCO2,-0.452
14,Cc1c(N=C2NC(=O)/C(=C/c3ccc(O)cc3)S2)c(=O)n(-c2ccccc2)n1C,0.207
15,CCCCCn1c(=O)c(F)cn(Cc2ccc(OC)c([N+](=O)[O-])c2)c1=O,0.252
16,O=C(CNS(=O)(=O)c1ccc(F)cc1)N1CCN(c2ccc(F)cc2)CC1,0.426
17,CCOc1ccc(Nc2nc(Cc3nnc(SCC(=O)N(CC)CC)n3C)cs2)cc1,-0.144
18,CCOC(=O)/C(C#N)=C\N(C)C,-0.141
19,COc1ccc(OC)c(CN(CCN2CCOCC2)C(=O)Nc2ccccc2)c1,0.588
20,CCOC(=O)N1CCN(C(=O)NC23CC4CC(CC(C4)C2)C3)CC1,-0.174
21,COC(=O)C1CCN(C(=O)Cc2ccc(OC)c(OC)c2)CC1,-0.15
22,COc1cccc(/C=C/c2ccncc2)c1OC,0.776
23,CC(C)C1=Nc2cccc3cccc(c23)N1,-0.0614

row,SMILES,z-score
1,CC1(C)CC(C)(c2ccc(O)cc2O)N(c2ccc3ccccc3c2)C(=S)N1 (centres undefined),0.207
2,COc1cc2c(cc1NC(=O)/C=C/c1ccc([N+](=O)[O-])cc1)oc1ccccc12,0.0287
3,Clc1ccc2nc(C3CCN(Cc4ccccc4)CC3)[nH]c2c1,-0.115
4,CCc1nc(C)cn1S(=O)(=O)c1cc(OC)c(C)cc1C,-1.12
5,O=C(N/N=C/c1ccsc1)c1cc(O)cc(O)c1,-0.223
6,Cc1nn(Cc2ccccc2)c(C)c1NC(=O)c1ccc([N+](=O)[O-])cc1[N+](=O)[O-],-0.302
7,O=C(c1cc2ccccc2oc1=O)N(Cc1ccccc1)Cc1ccc2c(c1)OCO2,-0.492
8,O=C(Nc1cccc(F)c1)c1cc(S(=O)(=O)NCCC2=CCCCC2)ccc1F,-0.143
9,Cc1cc(-c2n[nH]c(=S)n2Cc2ccco2)nn1C,-0.0547
10,COc1ccc(NC(=O)c2cccnc2N2CCCCC2)cc1,-0.363
11,CCc1cc(=O)oc2cc3occ(C)c3cc12,-0.331
12,CCOc1ccc2ccccc2c1/C=N/n1cncn1,-0.41
13,Cc1ccc2[nH]c3c(N4CCOCC4)ncnc3c2c1,0.00257
14,Cc1ccc(Cl)cc1N1CCN(C(=O)c2cc3c(=O)n(C)c4ccccc4c3n2C)CC1,0.437
15,CCN(CC)S(=O)(=O)c1ccc2nc(NC(=O)c3cccs3)sc2c1,-0.178
16,CC(=O)Nc1ccc(-c2csc(NC(=O)c3ccc(C)o3)n2)cc1,-0.019
17,Cc1ccc(/C(=N\O)c2oc3c(C)c4oc(=O)cc(C)c4cc3c2C)cc1,-1.24
18,N#CC1=C(N)S[C@H](C(=O)C23CC4CC(CC(C4)C2)C3)[C@H]1c1ccncc1,1.66
19,Cc1ccc(Nc2nc(N)nc(CN3CCC(C)CC3)n2)c(C)c1,-0.000421
20,O=C(CCSc1nnc(-c2ccncc2)o1)Nc1cccc2ccccc12,-0.0136
21,Cc1cccc(C(=O)O/N=C(\N)Cc2ccc([N+](=O)[O-])cc2)c1,0.123
22,c1ccc(Cn2cnc3ccccc32)cc1,0.828
23,COc1ccccc1NS(=O)(=O)c1ccccc1C#N,0.296

row,SMILES,z-score
1,Cc1noc(C)c1S(=O)(=O)N1CCCC(C(=O)NC2CCCCC2)C1 (centres undefined),-0.104
2,CC(=O)Nc1ccc(C(=O)OCC(=O)N(Cc2ccccc2)C(C)(C)C)cc1,-0.178
3,O=C1[C@@H]2C(Cc3ccc(O)cc3)NC3(C(=O)Nc4ccc(F)cc43)[C@@H]2C(=O)N1c1ccccc1 (some centres undefined),0.0633
4,Cc1ccc(SCc2c(C#N)c3ccccc3n2C)cc1,0.42
5,CC(C)OCC(O)CN (centres undefined),0.255
6,O=C1CC(SCc2nc3ccccc3[nH]2)C(=O)N1c1ccc(F)cc1 (centres undefined),0.0187
7,CC(C)(C)n1nnnc1C(c1cc2cc3c(cc2[nH]c1=O)OCO3)N1CCN(c2ccccc2)CC1 (centres undefined),-0.356
8,Cc1cc(C)cc(OCc2nnc(SCC(=O)Nc3ccccc3)o2)c1,0.0889
9,CC(=O)OC(C(=O)NC1CCCCC1)c1ccccc1 (centres undefined),-0.037
10,CCOC(=O)N1N=C(c2ccccc2)CC1(O)C(F)(F)F (centres undefined),-0.18
11,CCC(=O)Nc1cccc(NC(=S)NC(=O)Cc2ccccc2)c1,-0.281
12,CCOC(=O)N1CCN(C(=O)C(NC(=O)C2CCC(C)CC2)C(C)C)CC1 (centres undefined),-0.06
13,Cn1c(=O)c2c(nc(Br)n2CCSc2nnnn2-c2ccccc2)n(C)c1=O,0.288
14,CCNC(=O)/C=C1\NC(C)(C)Cc2c1ccc1ccccc21,-0.461
15,Cc1ccc(-c2cc(C(F)F)n3ncc(C(=O)Nc4c(C)nn(Cc5ccccc5Cl)c4C)c3n2)cc1,-0.591
16,CC(C)NC(=O)NC(=O)COC(=O)c1ccccc1Oc1ccccc1,-1.55
17,COc1ccc(C2(CN(C(C)=O)C(C)=O)CCCC2)cc1OC,0.926
18,COc1ccc2c(c1)C(C)CC(C)(C)N2C(=O)CSc1nc2ccccc2s1 (centres undefined),-0.0495
19,CCOC(=O)COc1c(Br)cc(/C=C2\SC(=O)N(CC(=O)N3CCCC3)C2=O)cc1OC,-0.0897
20,COc1ccc(CN2CCn3ncc(C(=O)Nc4ccc(Cl)cc4Cl)c3C2=O)cc1,-0.0573
21,COc1ccc(C(=O)c2sc(NC(C)C)nc2N)cc1OC,0.954
22,CC(C(=O)O)N1C(=O)CSc2ncccc21 (centres undefined),-0.732
23,COc1ccc(/C=N/NC(=O)c2ccc(Cn3cc([N+](=O)[O-])cn3)o2)c(OC)c1C,-0.253
